# Data taken from the supplement of paper PMC8728848.
# The list shows a part of the results.
# Columns and labels:
# Assay in all cases: glycan array binding signal (z-score within array); higher = stronger binding
# Details in all cases: glycan notation: IUPAC condensed, linker removed
# [1] = molecular target: Fuc(a1-2)Gal(b1-4)GlcNAc(b1-3)Gal(b1-4)GlcNAc(b1-3)Gal(b1-4)GlcNAc
# Summary of the method: (§1)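 Columns mapping to the same glycan were averaged after glycan names were converted to IUPAC-condensed notation. The data come from 3228 arrays in the Consortium for Functional Glycomics database, limited to those with an available protein sequence. Binding is reported as a within-array Z-score averaged across arrays of one protein sequence and across linkers.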
# [2] = molecular target: Fuc(a1-2)Gal(b1-4)GlcNAc(b1-3)GalNAc
# Summary of the method: as §1
# [3] = molecular target: Fuc(a1-2)Gal(b1-4)GlcNAc(b1-3)[Fuc(a1-2)Gal(b1-4)GlcNAc(b1-6)]GalNAc
# Summary of the method: as §1
# [4] = molecular target: Fuc(a1-2)Gal(b1-4)GlcNAc(b1-3)[Fuc(a1-3)[Gal(b1-4)]GlcNAc(b1-6)]Gal(b1-4)Glc
# Summary of the method: as §1
# [5] = molecular target: Fuc(a1-2)Gal(b1-4)GlcNAc(b1-6)GalNAc
# Summary of the method: as §1
# [6] = molecular target: Fuc(a1-2)Gal(b1-4)GlcNAc6S
# Summary of the method: as §1
# [7] = molecular target: Fuc(a1-2)Gal(b1-4)[Fuc(a1-3)]GlcNAc
# Summary of the method: as §1
# [8] = molecular target: Fuc(a1-2)Gal(b1-4)[Fuc(a1-3)]GlcNAc(b1-2)Man(a1-3)[Fuc(a1-2)Gal(b1-4)[Fuc(a1-3)]GlcNAc(b1-2)Man(a1-6)]Man(b1-4)GlcNAc(b1-4)[Fuc(a1-6)]GlcNAc
# Summary of the method: as §1
# [9] = molecular target: Fuc(a1-2)Gal(b1-4)[Fuc(a1-3)]GlcNAc(b1-2)[Fuc(a1-2)Gal(b1-4)[Fuc(a1-3)]GlcNAc(b1-4)]Man(a1-3)[Fuc(a1-2)Gal(b1-4)[Fuc(a1-3)]GlcNAc(b1-2)Man(a1-6)]Man(b1-4)GlcNAc(b1-4)GlcNAc
# Summary of the method: as §1
# [10] = molecular target: Fuc(a1-2)Gal(b1-4)[Fuc(a1-3)]GlcNAc(b1-3)Gal(b1-4)[Fuc(a1-3)]GlcNAc
# Summary of the method: as §1
# [11] = molecular target: Fuc(a1-2)Gal(b1-4)[Fuc(a1-3)]GlcNAc(b1-3)Gal(b1-4)[Fuc(a1-3)]GlcNAc(b1-3)Gal(b1-4)[Fuc(a1-3)]GlcNAc
# Summary of the method: as §1
# [12] = molecular target: Fuc(a1-2)Gal(b1-4)[Fuc(a1-3)]GlcNAc(b1-3)GalNAc
# Summary of the method: as §1
# [13] = molecular target: Fuc(a1-2)Gal(b1-4)[Fuc(a1-3)]GlcNAc(b1-3)[Neu5Ac(a2-6)Gal(b1-4)GlcNAc(b1-6)]Gal(b1-4)Glc
# Summary of the method: as §1
# [14] = molecular target: Fuc(a1-2)Gal3S(b1-4)GlcNAc
# Summary of the method: as §1
# [15] = molecular target: Fuc(a1-2)Gal6S(b1-3)GlcNAc
# Summary of the method: as §1
# [16] = molecular target: Fuc(a1-2)Gal6S(b1-3)GlcNAc6S
# Summary of the method: as §1
# Fuc(a1-2)Gal6S(b1-4)Glc = molecular target: Fuc(a1-2)Gal6S(b1-4)Glc
# Summary of the method: as §1
# [17] = molecular target: Fuc(a1-2)Gal6S(b1-4)Glc6S
# Summary of the method: as §1
# Fuc(a1-2)[Gal(a1-3)]Gal = molecular target: Fuc(a1-2)[Gal(a1-3)]Gal
# Summary of the method: as §1
# [18] = molecular target: Fuc(a1-2)[Gal(a1-3)]Gal(b1-3)GalNAc
# Summary of the method: as §1
# [19] = molecular target: Fuc(a1-2)[Gal(a1-3)]Gal(b1-3)GalNAc(b1-3)Gal(a1-4)Gal(b1-4)Glc
# Summary of the method: as §1
# [20] = molecular target: Fuc(a1-2)[Gal(a1-3)]Gal(b1-3)GlcNAc
# Summary of the method: as §1
# [21] = molecular target: Fuc(a1-2)[Gal(a1-3)]Gal(b1-3)GlcNAc(b1-2)Man(a1-3)[Fuc(a1-2)[Gal(a1-3)]Gal(b1-3)GlcNAc(b1-2)Man(a1-6)]Man(b1-4)GlcNAc(b1-4)GlcNAc
# Summary of the method: as §1
# [22] = molecular target: Fuc(a1-2)[Gal(a1-3)]Gal(b1-3)GlcNAc(b1-2)Man(a1-3)[Fuc(a1-2)[Gal(a1-3)]Gal(b1-3)GlcNAc(b1-2)Man(a1-6)]Man(b1-4)GlcNAc(b1-4)[Fuc(a1-6)]GlcNAc
# Summary of the method: as §1
# [23] = molecular target: Fuc(a1-2)[Gal(a1-3)]Gal(b1-3)GlcNAc(b1-3)GalNAc
# Summary of the method: as §1
# [24] = molecular target: Fuc(a1-2)[Gal(a1-3)]Gal(b1-3)GlcNAc(b1-6)GalNAc
# Summary of the method: as §1
# [25] = molecular target: Fuc(a1-2)[Gal(a1-3)]Gal(b1-4)Glc
# Summary of the method: as §1
# [26] = molecular target: Fuc(a1-2)[Gal(a1-3)]Gal(b1-4)GlcNAc
# Summary of the method: as §1
# [27] = molecular target: Fuc(a1-2)[Gal(a1-3)]Gal(b1-4)GlcNAc(b1-2)Man
# Summary of the method: as §1
# [28] = molecular target: Fuc(a1-2)[Gal(a1-3)]Gal(b1-4)GlcNAc(b1-2)Man(a1-3)[Fuc(a1-2)[Gal(a1-3)]Gal(b1-4)GlcNAc(b1-2)Man(a1-6)]Man(b1-4)GlcNAc(b1-4)GlcNAc
# Summary of the method: as §1
binder,measurement,setting,value
Cohesin-hDC-ASGPR (Homo sapiens) (protein) LDDLDAVRIKVDTVNAKPGDTVRIPVRFSGIPSKGIANCDFVYSYDPNVLEIIEIEPGDIIVDPNPDKSFDTAVYPDRKIIVFLFAEDSGTGAYAITKDGVFATIVAKVKEGAPNGLSVIKFVEVGGFANNDLVEQKTQFFDGGANVGDTTEPATPTTPVTTPTTTDDLDAASQNSKFQRDLVTLRTDFSNFTSNTVAEIQALTSQGSSLEETIASLKAEVEGFKQERQAGVSELQEHTTQKAHLGHCPHCPSVCVPVHSEMLLRVQQLVQDLKKLTCQVATLNNNASTEGTCCPVNWVEHQDSCYWFSHSGMSWAEAEKYCQLKNAHLVVINSREEQNFVQKYLGSAYTWMGLSDPEGAWKWVDGTDYATGFQNWKPGQPDDWQGHGLGGGEDCAHFHPDGRWNDDVCQRPYHWVCEAGLGQTSQESHHHHHH,glycan array binding signal (z-score),[1],-0.451
same,glycan array binding signal (z-score),[2],-0.29
same,glycan array binding signal (z-score),[3],0.606
same,glycan array binding signal (z-score),[4],-0.514
same,glycan array binding signal (z-score),[5],2.81
same,glycan array binding signal (z-score),[6],-0.454
same,glycan array binding signal (z-score),[7],-0.381
same,glycan array binding signal (z-score),[8],0.141
same,glycan array binding signal (z-score),[9],-0.025
same,glycan array binding signal (z-score),[10],-0.499
same,glycan array binding signal (z-score),[11],-0.411
same,glycan array binding signal (z-score),[12],-0.427
same,glycan array binding signal (z-score),[13],-0.505
same,glycan array binding signal (z-score),[14],-0.377
same,glycan array binding signal (z-score),[15],-0.246
same,glycan array binding signal (z-score),[16],1.48
same,glycan array binding signal (z-score),Fuc(a1-2)Gal6S(b1-4)Glc,-0.515
same,glycan array binding signal (z-score),[17],-0.344
same,glycan array binding signal (z-score),Fuc(a1-2)[Gal(a1-3)]Gal,-0.484
same,glycan array binding signal (z-score),[18],-0.494
same,glycan array binding signal (z-score),[19],-0.514
same,glycan array binding signal (z-score),[20],1.09
same,glycan array binding signal (z-score),[21],-0.343
same,glycan array binding signal (z-score),[22],-0.462
same,glycan array binding signal (z-score),[23],-0.407
same,glycan array binding signal (z-score),[24],2.85
same,glycan array binding signal (z-score),[25],-0.023
same,glycan array binding signal (z-score),[26],-0.444
same,glycan array binding signal (z-score),[27],-0.185
same,glycan array binding signal (z-score),[28],-0.484
